# Assay results as given in PubChem BioAssay (Tox21).
# “And” between values parts separate entries of the source, which are not always exact repeats. Identical values can stand only once. Where a structure was tested more than once in an assay, its records may differ in their call. The source made the active and inactive calls. Unless noted, calls follow the shape of the dose curve; as a rule, active = well fitted curve in the direction sought with a large enough effect in the repeat runs; inconclusive = weak or mixed curves; inactive = no such curve, though single readings can be large; an effect the other way counts as inactive or inconclusive.
# What was measured:
# [1] = qHTS assay for small molecule agonists of the p53 signaling pathway (AID 651631; calls by dose curve; also: nearly all actives have a fitted effect of over 15% in size; as to activation: % is scaled to controls: 0 for no effect and ±100 for the full control effect); settings: HCT-116 p53RE-bla reporter, beta-lactamase FRET ratio, 16 h; activation: at 73.3 µM (top of the series) unless noted
# Summary of the method: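 Quantitative high-throughput format: 4,000 p53RE-bla HCT-116 cells/well, 5 h pre-incubation, 16 h compound exposure at 37 °C, 2 h room-temperature substrate step, fluorescence intensity measured.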
# [2] = qHTS assay for small molecule disruptors of the mitochondrial membrane potential (AID 720635); settings: HepG2 mitochondrial membrane potential, Mito-MPS dye ratio; ratio activity, negative = MMP loss: at 83.2 µM (top of the series) unless noted; as to ratio activity, negative = MMP loss: % is scaled to controls: 0 for no effect and ±100 for the full control effect
# Summary of the method: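 HepG2 cells exposed to compound 1 hr at 37C, then Mito-MPS dye 30 min. Ratio read of aggregate (540/590 nm) versus monomer (490/535 nm) fluorescence.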
# [3] = qHTS assay to identify small molecule antagonists of the glucocorticoid receptor (GR) signaling pathway - cell viability counter screen (AID 720693); settings: GR-bla HeLa viability, CellTiter-Glo luminescence, 18 h, with 5 nM dexamethasone present; viability change, negative = cytotoxic: at 58.5 µM (top of the series); also: nearly all actives have a fitted effect of over 55% in size; as to viability change, negative = cytotoxic: % is scaled to controls: 0 for no effect and ±100 for the full control effect
# [4] = target: Glucocorticoid receptor (Homo sapiens) (UniProt P04150); test: qHTS assay to identify small molecule antagonists of the glucocorticoid receptor (GR) signaling pathway (AID 720692; active = well fitted inhibition curve with a large enough effect in the signal ratio in the repeat runs, not every such curve was filed as active; inconclusive = weak or mixed curves, or effect the other way; inactive = no such curve, though single readings can be large or run the other way; the % refers to the signal ratio; as to activity change, negative = inhibition: % is scaled to controls: 0 for no effect and ±100 for the full control effect); settings: GR-bla HeLa, beta-lactamase FRET ratio, dexamethasone-stimulated, 18 h
# Summary of the method: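 GRE-bla HeLa line, dex-stimulated (5 nM final). Compound exposure 18 h, 37 C. Beta-lactamase FRET read after 2 h RT substrate.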
# [5] = target: Glucocorticoid receptor (Homo sapiens) (UniProt P04150); test: qHTS assay to identify small molecule agonists of the glucocorticoid receptor (GR) signaling pathway (AID 720691; active = well fitted activation curve with a large enough effect in the signal ratio in the repeat runs, not every such curve was filed as active; inconclusive = weak or mixed curves, or effect the other way; inactive = no such curve, though single readings can be large or run the other way; the % refers to the signal ratio); settings: GR-bla HeLa, beta-lactamase reporter ratio, 18 h; activation: at 62.4 µM (top of the series) unless noted
# Summary of the method: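 A HeLa cervical cancer line expressing GR and a glucocorticoid response element-driven beta-lactamase gene is treated with compounds for 18 h; LiveBLAzer B/G FRET substrate is then applied and fluorescence read.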
# [6] = qHTS assay for small molecules that induce genotoxicity in human embryonic kidney cells expressing luciferase-tagged ATAD5 (AID 651632); settings: HEK293T ATAD5-luciferase induction, 16 h; series mostly up to 83.3 µM; also: nearly all actives have a fitted effect of over 15% in size
# Summary of the method: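 Test compounds were delivered by pin tool onto HEK293T reporter cells (2,000/well) expressing ATAD5 fused to luciferase. After 16 hr at 37C, 5% CO2, Amplite was added for 30 min at room temperature and luminescence was measured.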
# [7] = qHTS assay for small molecule agonists of the p53 signaling pathway - cell viability (AID 651633; calls by dose curve; also: nearly all actives have a fitted effect of over 30% in size); settings: p53RE-bla HCT-116 viability, ATP luminescence, 16 h; series mostly up to 83.3 µM
# Summary of the method: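 p53RE-bla cells were treated with compound for 16 hours at 37 C. Cytotoxicity was then measured as CellTiter-Glo luminescence after 30 min at room temperature.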
# [8] = qHTS assay for small molecules that induce genotoxicity in human embryonic kidney cells expressing luciferase-tagged ATAD5 - cell viability (AID 651634; calls by dose curve; also: nearly all actives have a fitted effect of over 25% in size); settings: HEK293T ATAD5-luc cells viability, CellTiter-Fluor, 15.5 h; series mostly up to 83.3 µM
# Summary of the method: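 Quantitative high-throughput format. HEK293T cells expressing ATAD5 fused to luciferase were plated at 2,000 cells/well and treated 15.5 hr with compound versus DMSO. Viability was determined by fluorescent live-cell protease substrate, 30 min at 37C.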
# [9] = qHTS assay for small molecule disruptors of the mitochondrial membrane potential - cell viability (AID 720634; calls by dose curve; also: nearly all actives have a fitted effect of over 20% in size); settings: HepG2 viability, ATP luminescence (CellTiter-Glo), 1 h; series mostly up to 83.2 µM
# Summary of the method: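 Same-well counter-screen: following the MMP dye addition, CellTiter-Glo was added to 1 hr compound-treated HepG2 cells and luminescence read after 30 min at room temperature.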
# [10] = activity change, negative = inhibition: at 58.5 µM (top of the series) unless noted
# Potency is read from the fitted curve at half-maximal effect; tags tell the direction and shape of the fitted curve or compound fluorescence and quenching.
# Chain of UniProt P04150 (P04150 whole entry, looked up): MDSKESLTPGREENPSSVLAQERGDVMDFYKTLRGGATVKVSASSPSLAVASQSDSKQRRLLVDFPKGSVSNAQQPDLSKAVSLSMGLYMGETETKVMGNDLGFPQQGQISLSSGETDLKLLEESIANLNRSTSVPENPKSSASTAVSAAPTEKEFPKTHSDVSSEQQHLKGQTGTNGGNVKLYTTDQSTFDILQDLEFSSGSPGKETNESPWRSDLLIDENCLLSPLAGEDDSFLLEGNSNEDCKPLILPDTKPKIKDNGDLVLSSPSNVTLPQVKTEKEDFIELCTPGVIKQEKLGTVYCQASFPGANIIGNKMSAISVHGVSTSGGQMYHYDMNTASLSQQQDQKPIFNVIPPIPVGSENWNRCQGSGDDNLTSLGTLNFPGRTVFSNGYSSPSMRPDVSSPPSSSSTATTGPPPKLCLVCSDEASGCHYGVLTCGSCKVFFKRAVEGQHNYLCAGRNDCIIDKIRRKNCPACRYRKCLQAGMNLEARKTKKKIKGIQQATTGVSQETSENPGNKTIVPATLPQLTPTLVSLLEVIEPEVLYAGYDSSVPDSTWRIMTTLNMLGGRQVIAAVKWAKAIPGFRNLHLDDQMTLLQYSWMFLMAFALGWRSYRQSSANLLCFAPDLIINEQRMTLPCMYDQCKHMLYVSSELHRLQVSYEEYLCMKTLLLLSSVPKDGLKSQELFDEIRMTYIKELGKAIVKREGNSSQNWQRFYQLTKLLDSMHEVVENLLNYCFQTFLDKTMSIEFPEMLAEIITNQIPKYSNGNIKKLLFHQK
smiles,measurement,setting,value
O=C1CCCCCCCCCCOCCCCO1,Potency,[1],inactive
same,Potency,[2],inactive
same,Potency,[3],inactive
NC1CCN(c2nc3c(cc2F)c(=O)c(C(=O)O)cn3-c2ccc(F)cc2F)C1 (stereo not drawn),activation,[1],inconclusive: 11.4%
same,Potency,[2],inactive
same,"activity change, negative = inhibition",[4]; [10],inconclusive: -5.86%
CCCCN1CCCC1C(=O)Nc1c(C)cc(C)cc1C (stereo not drawn),Potency,[1],"inconclusive: 7.5 µM [activator, single point]"
same,"ratio activity, negative = MMP loss",[2],inconclusive: 48.1%
same,Potency,[3],"inconclusive: 0.0477 µM [rising, full curve, poor fit]"
CC(C)OC(=O)c1cc2c(OCC(O)CNC(C)(C)C)cccc2[nH]1 (stereo not drawn),Potency,[1],"inconclusive: 29.8 µM [falling, partial curve, poor fit]"
same,Potency,[2],inactive
same,Potency,[3],"inconclusive: 2.68 µM [rising, single point]"
CC(C(=O)O)c1ccc2c(c1)[nH]c1ccc(Cl)cc12 (stereo not drawn),Potency,[1],"inconclusive: 33.5 µM [rising, partial curve, poor fit]"
same,Potency,[5],inactive
same,Potency,[4]; [10],inactive
CN(C)Cc1cc(C(C)(C)C)c(O)c(C(C)(C)C)c1,Potency,[1],inactive
same,Potency,[2],"inconclusive: 21.7 µM [activator, full curve]"
same,Potency,[4]; [10],inconclusive: 21.9 µM [inhibitor]
C[C@H]1NCc2cc(-c3ccc4c(=O)c(C(=O)O)cn(C5CC5)c4c3OC(F)F)ccc21,Potency,[1],inactive
same,Potency,[2],"inconclusive: 9.44 µM [activator, partial curve]"
same,Potency,[3],inactive
CC(C)Cn1cnc2c(N)nc3ccccc3c21,Potency,[1],"inconclusive: 11.9 µM [activator, partial curve, poor fit]"
same,Potency,[5],inactive
[Cu+],Potency,[1],inconclusive: 68.6 µM [activator]
same,activation,[5],inconclusive: 8.32%
same,"activity change, negative = inhibition",[4]; [10],inconclusive: 39.6%
CC(CO)c1ccccc1 (stereo not drawn),Potency,[1],"inconclusive: 77 µM [falling, partial curve, poor fit]"
same,Potency,[3],"inconclusive: 54.9 µM [rising, partial curve, poor fit]"
O=C1CCCN1CCO,Potency,[1],inactive
same,Potency,[4]; [10],inactive
c1ccc(CNc2ncnc3c2ncn3C2CCCCO2)cc1 (stereo not drawn),Potency,[6],"inconclusive: 13.7 µM [activator, partial curve, poor fit]"
CCOC(=O)[C@H](CCc1ccccc1)N[C@@H](C)C(=O)N1CCC[C@H]1C(=O)O,Potency,[1],inactive
same,Potency,[4]; [10],inactive
c1ccc2sc(SSc3nc4ccccc4s3)nc2c1,Potency,[6],inactive
c1cnccn1,Potency,[6],inactive
CCOC(=O)C(C)C(C)=O (stereo not drawn),Potency,[1],inactive
same,"activity change, negative = inhibition",[4]; [10],inconclusive: -7.28% [at 78.9 µM]
COc1cc(C(=O)OCCCN2CCCN(CCCOC(=O)c3cc(OC)c(OC)c(OC)c3)CC2)cc(OC)c1OC,Potency,[6],active: 8.41 µM
same,Potency,[7],"inconclusive: 29.8 µM [cytotoxic, partial curve, poor fit]"
same,Potency,[2],"inconclusive: 10.6 µM [activator, full curve]"
O=C(OCC1CO1)C1CCCCC1C(=O)OCC1CO1 (stereo not drawn),Potency,[1],"inconclusive: 21.7 µM [activator, partial curve]"
same,"activity change, negative = inhibition",[4]; [10],inconclusive: -20.1%
C[C@]12CC[C@@H]3c4ccc(O)cc4CC[C@H]3[C@@H]1CC[C@@H]2O,Potency,[1],active: 13.3 µM and active: 19.3 µM and active: 9.69 µM
same,activation,[5],inconclusive: -16.7%
same,Potency,[4]; [10],active: 4.25 µM and active: 2.18 µM
same,Potency,[3],"inconclusive: 21.3 µM [cytotoxic, partial curve, poor fit] and active: 24.5 µM and inconclusive: 49 µM [cytotoxic, partial curve, poor fit]"
CO[C@@]12[C@H](COC(N)=O)C3=C(C(=O)C(C)=C(N)C3=O)N1C[C@@H]1N[C@@H]12,Potency,[1],active: 1.88 µM
same,Potency,[5],inactive
same,Potency,[4]; [10],active: 21.3 µM
same,Potency,[3],active: 23.9 µM
COC1=CC(=O)C[C@@H](C)[C@]12Oc1c(Cl)c(OC)cc(OC)c1C2=O,Potency,[6],"inconclusive: 11.9 µM [activator, partial curve] and inconclusive: 34.1 µM [activator, partial curve] and inconclusive: 27.3 µM [activator, partial curve]"
same,Potency,[8],"inconclusive: 27.3 µM [falling, partial curve, poor fit]"
same,Potency,[2],"inconclusive: 8.56 µM [activator, full curve, poor fit]"
same,Potency,[5],"inconclusive: 9.69 µM [rising, full curve, poor fit]"
same,"activity change, negative = inhibition",[4]; [10],inconclusive: 14.5% and inconclusive: 15.6%
same,Potency,[3],"inconclusive: 26.8 µM and inconclusive: 54.5 µM [cytotoxic, single point]"
CO[C@@H]1[C@@H](OC)[C@H](C)[C@@](O)(CC(=O)O)O[C@H]1[C@H](C)[C@H]1O[C@@]2(CC[C@@](C)([C@H]3CC[C@@](C)([C@@H]4O[C@@H]([C@H]5O[C@](C)(O)[C@H](C)C[C@@H]5C)C[C@@H]4OC4C[C@H](OC)[C@@H](OC)[C@H](C)O4)O3)O2)C[C@H](O)[C@H]1C (stereo partly drawn),Potency,[1],inconclusive: 5.96 µM [activator]
same,Potency,[5],inactive
same,Potency,[4]; [10],"inconclusive: 1.9 µM [activator, partial curve]"
same,Potency,[3],"inconclusive: 0.0952 µM [rising, partial curve, poor fit]"
COCc1c(C(C)C)nc(C(C)C)c(/C=C/[C@@H](O)C[C@@H](O)CC(=O)O)c1-c1ccc(F)cc1,Potency,[1],"inconclusive: 0.0944 µM [rising, full curve, poor fit]"
same,Potency,[5],"inconclusive: 0.535 µM [rising, full curve, poor fit]"
same,Potency,[4]; [10],active: 3.38 µM
same,Potency,[3],"inconclusive: 3.01 µM [cytotoxic, full curve]"
Nc1cccc2c1CN(C1CCC(=O)NC1=O)C2=O (stereo not drawn),Potency,[1],"inconclusive: 7.5 µM [falling, single point]"
same,Potency,[4]; [10],inactive
O=C(O)c1cccc(C[C@@H]2COc3ccc(OCc4nc5cc(F)ccc5s4)cc3[C@@H]2O)c1,Potency,[1],"inconclusive: 48.6 µM [activator, partial curve, poor fit]"
same,Potency,[5],inactive
same,Potency,[4]; [10],"inconclusive: 43.7 µM [inhibitor, partial curve, poor fit]"
COCC(C)N (stereo not drawn),Potency,[1],inactive
same,Potency,[4]; [10],inactive
Cc1cc(-n2nc3ccc(Cl)cc3n2)c(O)c(C(C)(C)C)c1,Potency,[1],"inconclusive: 18.8 µM [rising, partial curve, poor fit]"
same,Potency,[3],inactive
FC1(F)C(F)(F)C(F)(F)C2(F)C(F)(F)C(F)(F)C(F)(F)C(F)(F)C2(F)C1(F)F (stereo not drawn),Potency,[1],"inconclusive: 1.19 µM [activator, single point]"
same,"activity change, negative = inhibition",[4]; [10],inconclusive: -3.4%
C=CCCCCCCCCCC,activation,[1],inconclusive: -2.64%
same,Potency,[4]; [10],inactive
same,Potency,[3],"inconclusive: 1.1 µM [rising, single point]"
Nc1ccc(N=Nc2ccc(N)cc2)cc1,Potency,[6],active: 5.44 µM
same,Potency,[8],active: 27.3 µM
same,Potency,[2],active: 6.85 µM
CC12CC3CC(C)(C1)CC(N)(C3)C2,Potency,[1],inactive
same,Potency,[4]; [10],inactive
COc1ccc(-c2coc3cc(O)cc(O)c3c2=O)cc1,Potency,[6],active: 1.38 µM and active: 3.86 µM
same,Potency,[8],"inconclusive: 54.5 µM [falling, partial curve, poor fit]"
same,Potency,[9],active: 4.9 µM and active: 13.7 µM
same,Potency,[2],active: 3.09 µM and active: 6.86 µM
same,Potency,[4]; [10],"inconclusive: 54.9 µM [inhibitor, single point]"
same,"activity change, negative = inhibition",[4]; [10],inconclusive: -20.2% [at 78.9 µM]
same,Potency,[3],"inconclusive: 55.4 µM [cytotoxic, single point] and inconclusive: 54.9 µM [cytotoxic, single point]"
CCCCOC(=O)CCCCCCCC(=O)OCCCC,activation,[1],inconclusive: 6.89%
same,Potency,[3],inactive
CN(C)Cc1ccccc1O,Potency,[1],inactive
same,"activity change, negative = inhibition",[4]; [10],inconclusive: -5.97%
CCCCCCCCCCCCCCCCCCOCC(O)CO (stereo not drawn),Potency,[1],inactive
same,Potency,[5],active: 0.952 µM [inconclusive]
same,Potency,[4]; [10],"inconclusive: 2.39 µM [activator, full curve]"
CC(C)C1=CC2=CC[C@@H]3[C@](C)(CCC[C@@]3(C)C(=O)O)[C@H]2CC1,Potency,[6],inactive
same,Potency,[7],"inconclusive: 68.6 µM [cytotoxic, single point]"
same,Potency,[9],"inconclusive: 68.6 µM [cytotoxic, partial curve, poor fit]"
same,Potency,[2],"inactive and inconclusive: 61.1 µM [inhibitor, single point]"
same,Potency,[4]; [10],inactive and active: 54.9 µM
CCCCC(CC)COCCO (stereo not drawn),Potency,[1],"inconclusive: 68.6 µM [partial curve, poor fit]"
same,"activity change, negative = inhibition",[4]; [10],inconclusive: 38.1%
COc1ccc(/C=C/C(=O)c2ccc(OC)cc2OC)cc1,Potency,[6],inactive
same,Potency,[8],"inconclusive: 13.3 µM [falling, partial curve, poor fit]"
same,Potency,[2],active: 13.3 µM
same,Potency,[4]; [10],"inconclusive: 21.3 µM [inhibitor, partial curve, poor fit]"
CCCOC(=O)c1c(Cl)c(Cl)c(Cl)c(Cl)c1C(=O)OCCC,Potency,[1],"inconclusive: 38.6 µM [fluorescent, partial curve, poor fit]"
same,Potency,[4]; [10],inactive
C=C(C#N)C(=O)OCC,Potency,[6],inconclusive: 61.1 µM [activator]
same,Potency,[8],"inconclusive: 19.3 µM [falling, partial curve, poor fit]"
same,Potency,[2],"inconclusive: 54.5 µM [cytotoxic, partial curve, poor fit]"
same,"ratio activity, negative = MMP loss",[2],inconclusive: 14%
same,"activity change, negative = inhibition",[4]; [10],inconclusive: 16.9%
same,"activity change, negative = inhibition",[4]; at 58.5 µM (top of the series),inactive: 3.13%
CCC1CCC(CCC(=O)O)C1 (stereo not drawn),Potency,[1],inactive
same,"activity change, negative = inhibition",[4]; [10],inconclusive: 26.6% [at 78.9 µM]
